In this assay the target is Nonstructural protein 3 (Zika virus) (UniProt A0A024AXB9).
[1] abbreviates: PRVABC59, Concentration 50.0 uM, Number of replicates 1.0.
Setting [2] is: PRVABC59, Concentration 15.0 uM, Number of replicates 1.0.

Out of some 2,700 compounds screened, about 160 (5.9%) showed an effect of 50% or more. The list shows a part of the results. Where a SMILES comes first, the peptide text is derived from it. [ ]: non-standard residue; d: D form. Phg = N[C@H](C(=O)O)c1ccccc1; 4Amb = NCc1ccc(C(=O)O)cc1; Nle = CCCC[C@H](N)C(=O)O

Chain of UniProt A0A024AXB9 (A0A024AXB9 as listed by the source): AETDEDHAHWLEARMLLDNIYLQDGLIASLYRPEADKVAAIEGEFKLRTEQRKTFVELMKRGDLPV

The term inhibition denotes the relative decrease from the control value, in per cent. As to `O=Cc1ccc(N2CCC(C(=O)NCCc3cc(Cl)cc(Cl)c3)CC2)cc1`, the inhibition under setting [1] amounted to 3.92%. In the case of `N#Cc1cnn(-c2ccc([N+](=O)[O-])cc2)c1NC(=O)c1cc(Cl)ccc1NS(=O)(=O)c1ccc(Oc2ccccc2Cl)cc1`, the inhibition under setting [2] was determined as 26.5%. On the same count and under the same terms, with `O=C(NCCN1CCc2ccccc21)c1cc(Cl)ccc1NS(=O)(=O)c1ccc(Oc2ccccc2Cl)cc1` the figure was 12.7%. For the molecule `C[C@H]1c2cc(O)c(O)cc2CCN1C(=O)C1CCN(c2ccc(C=O)cc2)CC1`, the inhibition under setting [1] was 35.9%. Same read-out and setting: with `O=Cc1ccc(N2CCC(C(=O)Nc3ncc(Br)nc3Cl)CC2)cc1` the figure was -2.78%; with `O=Cc1ccc(N2CCC(C(=O)NC3(c4ccc(Cl)cc4)CC3)CC2)cc1`, 17.9%. Turning to `[N-]=[N+]=NCCOCCOCCOCCNC(=O)c1cc(Cl)ccc1NS(=O)(=O)c1ccc(Oc2ccccc2Cl)cc1`, the inhibition under setting [2] is -2.17%.

On to `O=Cc1ccc(N2CCC(C(=O)Nc3cccc(OC(F)(F)F)c3)CC2)cc1`, for which, under setting [1], the inhibition worked out at 23%. Turning to `CC(=O)Nc1ccc(C(=O)Nc2cccc(Cc3cccc4c(CO)cc(C)nc34)c2)cn1`, the inhibition (PRVABC59, Concentration 49.95 uM, Number of replicates 2.0, Standard deviation 2.007257821672428 %) was -6.17% and the inhibition (PRVABC59, Concentration 99.9 uM, Number of replicates 2.0, Standard deviation 0.8731569349497679 %) was -4.81%. As to `CN1CCC(C#N)(C(=O)N2CC(NC(=O)c3ccc4[nH]c(N(C)C)nc4c3)C2)CC1`, the inhibition runs as follows: (PRVABC59, Concentration 49.5 uM, Number of replicates 2.0, Standard deviation 2.468574044705993 %) -0.431%; (PRVABC59, Concentration 99.01 uM, Number of replicates 2.0, Standard deviation 3.240163733946571 %) 0.727%; (PRVABC59, Concentration 198.0 uM, Number of replicates 2.0, Standard deviation 3.3016858048192868 %) 2%.

Consider `O=Cc1ccc(N2CCC(C(=O)Nc3nc4c(Cl)cccc4s3)CC2)cc1`, for which, under setting [1], the inhibition stood at 24.6%. Turning to `Cc1cnccc1NC(=O)c1csc(CC(C)C)n1`, the inhibition reads like this: (PRVABC59, Concentration 49.5 uM, Number of replicates 2.0, Standard deviation 2.5907989886936305 %) 1.98%; (PRVABC59, Concentration 99.01 uM, Number of replicates 2.0, Standard deviation 1.9094189704762088 %) 3.41%; (PRVABC59, Concentration 198.0 uM, Number of replicates 2.0, Standard deviation 1.8964648837052944 %) 6.16%. As for `Cc1n[nH]c(NC(=O)C2CCN(c3ccc(C=O)cc3)CC2)c1Br`, the inhibition under setting [1] came to 23.1%. As to `Cc1cc(CO)c2cccc(Cc3ccccc3NC(=O)c3nc(N)n[nH]3)c2n1`, the inhibition was -1.17% (PRVABC59, Concentration 49.95 uM, Number of replicates 2.0, Standard deviation 1.1858913556413317 %) and 2.56% (PRVABC59, Concentration 99.9 uM, Number of replicates 2.0, Standard deviation 1.6592298829189325 %). `O=Cc1ccc(N2CCC(C(=O)N(CCc3ccccc3)C3CCCC3)CC2)cc1`: the inhibition under setting [1] was determined as 23.2%.

With `Cc1cc(CO)c2cccc(Cc3cccc(C(=O)N4CCC(CN)CC4)c3)c2n1`, the inhibition is, setting by setting: (PRVABC59, Concentration 49.95 uM, Number of replicates 2.0, Standard deviation 0.3303341859864401 %) 94.6%; (PRVABC59, Concentration 99.9 uM, Number of replicates 2.0, Standard deviation 0.3198467013777773 %) 90.9%. For the molecule `CN(C)Cc1cccc(CNC(=O)C2CCN(c3ccc(C=O)cc3)CC2)c1`, the inhibition (PRVABC59, Concentration 10.0 uM, Number of replicates 1.0) was 30%. `CN(CC[C@H](O)c1cccs1)C(=O)c1cc(Cl)ccc1NS(=O)(=O)c1ccc(Oc2ccccc2Cl)cc1`: under setting [2], the inhibition is 7.67%. Regarding `O=Cc1ccc(N2CCC(C(=O)N3CCN(C(=O)c4ccc(O)cc4)CC3)CC2)cc1`, the inhibition under setting [1] was determined as 27.6%. With `CC(C)(C)c1csc(NC(=O)c2cc(Cl)ccc2NS(=O)(=O)c2ccc(Oc3ccccc3Cl)cc2)n1`, the inhibition under setting [2] amounted to 22.1%. In the case of `O=Cc1ccc(N2CCC(C(=O)N3CCN(C/C=C/c4ccccc4)CC3)CC2)cc1`, the inhibition under setting [1] turned out to be 25.2%. As for `Cc1c(C(=O)N[C@@]2(C)CCN(Cc3cnn[nH]3)C2)ccc(O)c1NC(=O)c1ccncc1F`, the inhibition by setting is: (PRVABC59, Concentration 49.5 uM, Number of replicates 2.0, Standard deviation 2.392637309100642 %) -3.82%; (PRVABC59, Concentration 99.01 uM, Number of replicates 2.0, Standard deviation 2.599773854519374 %) -2.18%; (PRVABC59, Concentration 198.0 uM, Number of replicates 2.0, Standard deviation 3.576274229815126 %) 0.466%. As to `CN(C)c1ccc(C(=O)Nc2cc(Cl)cc(C(=O)NC(C)(C)CO)c2)nc1`, the inhibition runs as follows: (PRVABC59, Concentration 49.5 uM, Number of replicates 2.0, Standard deviation 3.9613998246279105 %) -1.53%; (PRVABC59, Concentration 99.01 uM, Number of replicates 2.0, Standard deviation 2.7948399639930708 %) 0.849%. With `Cc1cc(CO)c2cccc(NC(=O)Cc3cccc(CN)c3)c2n1`, the inhibition reads like this: (PRVABC59, Concentration 49.95 uM, Number of replicates 2.0, Standard deviation 2.002239649301327 %) 8.36%; (PRVABC59, Concentration 99.9 uM, Number of replicates 2.0, Standard deviation 0.9082841415474754 %) 22.1%. Regarding `CN(C)c1ccc(CNC(=O)c2cc(Cl)ccc2NS(=O)(=O)c2ccc(Oc3ccccc3Cl)cc2)cc1`, the inhibition under setting [2] was determined as 17.4%.

As for `O=C(NC1CCN(C(=O)c2cc(Cl)ccc2NS(=O)(=O)c2ccc(Oc3ccccc3Cl)cc2)CC1)c1ccccc1`, under setting [2], the inhibition is 10.3%. For `Cc1cc(Br)c(NC(=O)c2cc(Cl)ccc2NS(=O)(=O)c2ccc(Oc3ccccc3Cl)cc2)c([N+](=O)[O-])c1`, the inhibition under setting [2] amounted to 22.9%. As to `Cc1cc(CO)c2cccc(C[C@H](NC(=O)Cc3nnc(C)[nH]3)C(=O)O)c2n1`, the inhibition runs as follows: (PRVABC59, Concentration 49.95 uM, Number of replicates 2.0, Standard deviation 0.5068325434955111 %) 2.74%; (PRVABC59, Concentration 99.9 uM, Number of replicates 2.0, Standard deviation 0.9333753405777689 %) 9.45%. Take `CCOCc1nc(Cn2cc(C3CCNCC3)c(C)n2)cs1`: the inhibition reads like this: (PRVABC59, Concentration 49.5 uM, Number of replicates 2.0, Standard deviation 3.999716409692983 %) -1.96%; (PRVABC59, Concentration 99.01 uM, Number of replicates 2.0, Standard deviation 4.660467178754702 %) -0.974%; (PRVABC59, Concentration 198.0 uM, Number of replicates 2.0, Standard deviation 3.9603613262806023 %) -0.265%. Consider `CCN(C(=O)C1CCN(c2ccc(C=O)cc2)CC1)[C@H]1CCOC(C)(C)C1`, for which the inhibition under setting [1] is 24.4%. In the case of `C[C@H](NC(=O)C1CCN(c2ccc(C=O)cc2)CC1)C12CC3CC(CC(C3)C1)C2`, the inhibition under setting [1] came to 15.4%. `O=C(CNC(=O)c1cc(Cl)ccc1NS(=O)(=O)c1ccc(Oc2ccccc2Cl)cc1)c1ccccc1F`: under setting [2], the inhibition amounted to 40.7%. Take `CC(C)(NC(=O)c1cc(Cl)ccc1NS(=O)(=O)c1ccc(Oc2ccccc2Cl)cc1)c1ccc(Cl)cc1`: the inhibition under setting [2] stood at 44.3%. Regarding `CN(C)Cc1ccc(NCc2ccc(N3CCN(C)CC3)cc2)nc1`, the inhibition was -2.39% (PRVABC59, Concentration 49.5 uM, Number of replicates 2.0, Standard deviation 0.4640657991367188 %); -1.05% (PRVABC59, Concentration 99.01 uM, Number of replicates 2.0, Standard deviation 0.7284754441158133 %); 1.21% (PRVABC59, Concentration 198.0 uM, Number of replicates 2.0, Standard deviation 0.8166119221974307 %). For the molecule `NS(=O)(=O)c1ccc(CN2CC[C@H](c3c[nH]c4ccccc34)C2)cc1`, the inhibition was determined as 6.37% (PRVABC59, Concentration 49.5 uM, Number of replicates 2.0, Standard deviation 7.161002948854144 %); 6.39% (PRVABC59, Concentration 99.01 uM, Number of replicates 2.0, Standard deviation 1.659205437746796 %); 16.1% (PRVABC59, Concentration 198.0 uM, Number of replicates 2.0, Standard deviation 2.217206109795867 %). Take `O=C(c1nc2ccccc2[nH]1)N1CCC[C@H](c2cc3ccccc3[nH]2)C1`: the inhibition (PRVABC59, Concentration 49.5 uM, Number of replicates 2.0, Standard deviation 1.1321789904305632 %) is 7.59%; the inhibition (PRVABC59, Concentration 99.01 uM, Number of replicates 2.0, Standard deviation 0.9508227871621268 %) worked out at 7.42%; the inhibition (PRVABC59, Concentration 198.0 uM, Number of replicates 2.0, Standard deviation 1.4793462905374664 %) turned out to be 9.14%. Regarding `Cc1cc(CO)c2cccc(Cc3ccccc3NC(=O)[C@H](N)CCO)c2n1`, the inhibition by setting is: (PRVABC59, Concentration 49.95 uM, Number of replicates 2.0, Standard deviation 2.3056170481549874 %) -1.76%; (PRVABC59, Concentration 99.9 uM, Number of replicates 2.0, Standard deviation 1.6032436530841527 %) 1.71%. Consider `CCCC[C@H](NC(C)=O)C(=O)N[C@H](C(=O)NCc1ccc(C(N)=O)cc1)c1ccccc1` (Ac-[Nle]-[Phg]-[4Amb]-NH2), for which the inhibition by setting is: (PRVABC59, Concentration 49.5 uM, Number of replicates 2.0, Standard deviation 0.08688180854829654 %) 0.43%; (PRVABC59, Concentration 99.01 uM, Number of replicates 2.0, Standard deviation 0.6344392080327925 %) 2.21%; (PRVABC59, Concentration 198.0 uM, Number of replicates 2.0, Standard deviation 1.1213816421916485 %) 3.42%.

As for `CN(Cc1nc(-c2cccnc2)no1)C(=O)C1CCN(c2ccc(C=O)cc2)CC1`, the inhibition under setting [1] worked out at 23.8%. Take `Cc1nc(CNC(=O)c2cc(Cl)ccc2NS(=O)(=O)c2ccc(Oc3ccccc3Cl)cc2)nc2c1CCCC2`: under setting [2], the inhibition was determined as 37%.

(Values after ChEMBL document CHEMBL5606458, “ASAP - ZIKV NS2B-NS3 protease fluorescence single point” (2024).)
